# From PubChem BioAssay AID1240 (Sanford-Burnham Center for Chemical Genomics, 2008)
# The whole screen tested about 50,000 compounds, of which about 800 (1.6%) showed an effect of 50% or more. This is one part of the list.
# Biological target: Bcl-2-like protein 10 (Homo sapiens) (UniProt Q9HD36)
# Assay: Phenotype converters, Bcl-B/TR3 peptide binding displacement, primary biochemical FP (AID 1240);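 also: 0% = Bcl-B with tracer peptide and DMSO and 100% = tracer peptide lacking Bcl-B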
# Settings: GST-Bcl-B / FITC-TR3 peptide fluorescence polarization; stronger effect = higher value; compound at 3.75 mg/L
# Sequence of UniProt Q9HD36 (Q9HD36 whole entry, looked up): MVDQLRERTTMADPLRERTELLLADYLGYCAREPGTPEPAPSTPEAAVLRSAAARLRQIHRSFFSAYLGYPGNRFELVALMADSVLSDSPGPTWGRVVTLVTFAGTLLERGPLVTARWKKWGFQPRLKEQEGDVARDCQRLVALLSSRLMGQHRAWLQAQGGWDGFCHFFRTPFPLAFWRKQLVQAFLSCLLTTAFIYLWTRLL
row,SMILES,displacement [%]
1,Cc1cc(/C=N/n2cnnc2)c(C)n1-c1cccc(Cl)c1,-2.8
2,Clc1ccc(-c2ncnn2-c2cccc(Cl)c2)cc1,-4
3,COc1ccc(C(=O)Nc2cccc(-c3nc4ccccc4s3)c2)cc1Br,3.5
4,CCC(=O)N1c2ccccc2NC2=C(C(=O)CC(c3ccccc3)C2)C1c1cccc(Br)c1 (configuration not stated),6
5,O=C(/C=C/c1c[nH]c2ccccc12)c1ccc(Cl)cc1,11.1
6,CSc1ccc(/C=C2\C(=O)NC(=O)N(c3ccc(Br)c(C)c3)C2=O)cc1,-4.9
7,CCN(CC)CCCNC(=O)c1ccc(OC)cc1OC,-3.5
8,CCOc1ccc(NC(=O)C(=O)N/N=C/c2cccs2)cc1,-0.4
9,O=C(Nc1ccccc1)c1cccc(C(=O)Nc2ccccc2)c1,-0.1
10,O=C1CC(c2ccccc2)CC(O)=C1C(C1=C(O)CC(c2ccccc2)CC1=O)c1ccc(O)c(O)c1 (configuration not stated),10.8
11,COc1cc(OC)cc(C(=O)N2CCN(C(=O)Cc3ccccc3)CC2)c1,-19.3
12,CC(C)(c1ccccc1)c1ccc(OCc2ccc(C(=O)O)o2)cc1,6.8
13,COc1cccc(/C=C2/C=C(c3ccc(C)cc3)OC2=O)c1,7.5
14,Cc1ccc(Cl)cc1NC(=O)C1CC(=O)N(c2ccc(F)cc2)C1 (configuration not stated),6.6
15,O=C(Nc1sc2c(c1C(=O)O)CCCCC2)c1ccco1,-0.5
16,Cc1c(-c2ccc(Cl)cc2)[n+](=O)c2c(n1[O-])CCC2,0.4
17,O=C(COc1ccc(Cl)cc1Cl)Nc1ccc2c(c1)OCO2,3.3
18,Cc1cc(C)c2nc3s/c(=C\c4cc(Br)ccc4O)c(=O)n3c2c1,-17
19,CCCCSc1nc2sc3c(c2c(=O)n1Cc1ccccc1)CCCC3,9.3
20,O=C(NCCCN1CCOCC1)c1ccc(Cl)cc1,-3.7
21,CCC(C)C(=O)N1c2ccc(OC)cc2-c2c(ssc2=S)C1(C)C (configuration not stated),-16.3
22,CCOC(=O)c1c(NC(=O)C2CCCCC2)sc(C)c1C,7
23,COc1ccc(NC(=O)c2cnn3c2NC(c2ccco2)CC3C(F)(F)F)c(OC)c1 (configuration not stated),3.2

row,SMILES,displacement [%]
1,O=C(COc1ccccc1)Nc1cc(-c2ccc(F)cc2)[nH]n1,8.3
2,C=CCn1c(=O)c(C(=O)Nc2ccccc2)c(O)c2ccccc21,14.9
3,O=C(N/N=C/c1cc(Cl)cc([N+](=O)[O-])c1O)c1ccc2c(c1)OCO2,20.5
4,O=C(NCCc1ccccc1F)C(=O)Nc1nccs1,13.8
5,Cc1cc(NC(=O)CCCOc2ccc(Cl)cc2Cl)no1,10.5
6,CCOC(=O)c1c(-c2ccncc2)csc1N,6.2
7,N/C(=N\OC(=O)Cc1ccc(Cl)cc1)c1cccnc1,-3.8
8,O=C1/C(=C/c2ccc(O)cc2)SC(=S)N1Cc1ccco1,-13.3
9,COc1ccccc1C(=O)Nc1cc2nn(-c3ccc(C)cc3)nc2cc1C,-9.2
10,CCOc1ccc(NC(=O)C2=C(C)NC(=S)NC2c2ccc(C)cc2)cc1 (configuration not stated),-4.5
11,COc1cc(C=C2C(=O)NC(=O)NC2=O)cc(Cl)c1OCCOc1ccc(C)c(C)c1,3.1
12,CC1(C(=O)O)CCC(C(=O)Nc2ccc(S(N)(=O)=O)cc2)C1(C)C (configuration not stated),1
13,COc1ccc(N/C=C/C(=O)c2ccc(C)cc2)c(OC)c1,-22.2
14,Cc1ccc(C(=O)/C=C/c2ccc(-c3ccccc3Br)o2)cc1,10.4
15,COC(=O)c1cccc(/C=C/N(C)C)c1[N+](=O)[O-],13.7
16,COc1cc(/C=N\NC(N)=S)ccc1OC(=O)c1cc(F)c(F)cc1Cl,9.8
17,Clc1ccc(CSc2nc3ncccc3[nH]2)cc1Cl,9.4
18,Cc1ccc(S(=O)(=O)Nc2cc(Cl)c(O)c(Cl)c2)cc1,2.1
19,CCc1c(O)nc2n(c1=O)CCCS2,12.8
20,CCn1c2ccccc2c2cc(CNc3cc([N+](=O)[O-])ccc3OC)ccc21,8.6
21,CC(=O)N(C)c1ccc(NC(=S)Nc2ccc(F)cc2)cc1,-10.8
22,O=C(CC1S/C(=N\N=C\c2ccccc2)NC1=O)Nc1ccc(C(=O)O)cc1 (configuration not stated),69.5
23,O=C1c2c(Cl)c(Cl)c(Cl)c(Cl)c2C(=O)N1c1cc2c(cc1Br)OCCO2,-3.4

row,SMILES,displacement [%]
1,Cc1ccc(NC(=O)c2cccc(F)c2)cc1Cl,-0.3
2,COc1ccc(/C=C/C(=O)c2ccc(F)cc2)c(OC)c1,31.4
3,CC(C)(C)c1ccc(OCC(=O)Nc2ccc(NC(=O)c3ccco3)cc2)cc1,-36
4,Cc1cccc(N2C(=O)/C(=C/c3ccc(I)cc3)SC2=S)c1,-4.4
5,CCCN1CCc2c(sc3[nH]c(=S)n(CCc4ccccc4)c(=O)c23)C1,-8.4
6,COc1cccc(OCCCCS)c1,10
7,Cc1ccc(-n2c(C)cc(/C=C3\SC(=O)NC3=O)c2C)cc1C,1.9
8,O=C1C(=Cc2ccc(Br)cc2)C(=O)c2ccccc21,17.6
9,O=C(O)C1CCCCC1C(=O)Nc1nc(-c2cccc3ccccc23)cs1 (configuration not stated),-3.7
10,O/N=C(/c1ccccc1)c1cc2c(s1)CCCC/C2=N/O,-1.2
11,NC(=O)c1nn2c(C(F)(F)F)cc(-c3ccccc3)nc2c1Cl,-7.4
12,O=C(Nc1ccc(OC(F)(F)F)cc1)c1ccccc1Br,-0.9
13,CC(=O)c1c(C)n(S(=O)(=O)c2ccccc2)c2ccc(NS(=O)(=O)c3ccccc3)cc12,8
14,O=C(CSc1nc2ccccc2s1)NC(c1ccccc1)c1ccccc1,5.2
15,NC(=O)c1c(NC(=O)CCN2C(=O)c3ccccc3C2=O)sc2c1CCC2,13.1
16,CC(=O)n1cc(/C=C2\N=C(c3ccccc3F)OC2=O)c2ccccc21,7.6
17,N/C(=N\OCC(=O)Nc1ccccc1)c1nonc1N,-1.1
18,CCC(=O)Nc1ccc(NC(=O)c2ccc(OC)c([N+](=O)[O-])c2)cc1,1.6
19,CC(=O)Nc1ccc(NC(=O)c2ccccc2OC(F)F)cc1,13.2
20,CC1(C)Cc2c(sc(NC(=O)Nc3ccccc3)c2C(N)=O)CO1,-5.6
21,C=CCc1ccccc1OCCn1cc(C=C2C(=O)NC(=S)NC2=O)c2ccccc21,53.6
22,Cc1ccc(CSCCNC(=O)c2ccc(OC3CSC3)cc2)cc1,-15.9
23,O=C(Nc1cccc(C(F)(F)F)c1)c1c(O)c2ccccc2[nH]c1=O,5.9

row,SMILES,displacement [%]
1,C/C(=C1/SC(N2CCOCC2)=NC1=O)c1ccc(Cl)cc1,31
2,CCOc1cc(C=O)cc(I)c1OCc1ccc([N+](=O)[O-])cc1,0.1
3,COc1ccc(OC)c(N(CC(=O)Nc2ccc(C(C)C)cc2)S(C)(=O)=O)c1,16
4,Cc1ccc(C(=O)c2ccc([N+](=O)[O-])cc2)c(C)c1,12.3
5,CCOC(=O)CSc1nnc2c3ccccc3n(C)c2n1,-6.2
6,NS(=O)(=O)c1cccc(NC(=O)c2cccc3ccccc23)c1,-8.4
7,O=C1c2cc(S(=O)(=O)NCCCO)ccc2-c2ccc(S(=O)(=O)NCCCO)cc21,10.9
8,CCN1C(=O)/C(=C\c2cn(Cc3ccccc3)c3ccccc23)SC1=S,3.3
9,O=C(O)CCCN1C(=O)/C(=C/c2ccccc2)SC1=S,-3.4
10,COCCCNC(=O)C(=O)NCCc1ccc(OC)cc1,12.7
11,COC(=O)CN(c1ccc(OC)cc1OC)S(=O)(=O)c1ccccc1[N+](=O)[O-],-2.5
12,COc1ccc(C(=O)Nc2ccc3c(c2)Cc2ccccc2-3)cc1,15.2
13,COc1ccccc1NC(=O)N1CCN(c2cccc(C(F)(F)F)c2)CC1,9.8
14,Cc1ccc(C)c(Cc2cc([N+](=O)[O-])ccc2C)c1,6.5
15,CCOc1ccc2nc(NC(=O)CCC(=O)O)sc2c1,13.6
16,CN(C)c1ccc(C(=O)N2CCN(c3cccc(Cl)c3)CC2)cc1,16.7
17,Cc1ccc(NC(=S)NC(=O)c2ccco2)c(Br)c1,4.9
18,COc1cccc(C(=O)Nc2ccc(Cl)c(-c3nc4cc(Cl)ccc4o3)c2)c1,105
19,C=CCNC(=O)c1ccc(-c2cccc(Cl)c2)o1,8
20,CCOc1ccc(/C=C2/SC(=S)N(CC(=O)O)C2=O)c(OCC)c1,9.6
21,COC(=O)c1ccc(/C=C2/N=C(c3ccc(OC)cc3)N(c3ccc(F)cc3)C2=O)cc1,38.1
22,COc1ccc(NC(=O)/C(=C/c2cccs2)NC(=O)c2cccs2)cc1,-10.7
23,O=C(O)/C=C/c1ccc(N2Cc3ccccc3C2)cc1,-4.6

row,SMILES,displacement [%]
1,Oc1ccc(C=NCC2(c3ccccc3)CCCC2)cc1,-2.1
2,Cc1ccccc1C(=O)Nc1cccc(N)c1,11.9
3,COc1ccccc1C1CC(c2ccc(C)cc2)=NN1C(C)=O (configuration not stated),15.9
4,Fc1cccc(/C=N/N2CCN(Cc3cccc4ccccc34)CC2)c1,8
5,CC(C)(C)c1nnc(NC(=O)Nc2ccc(Cl)cc2)s1,11.1
6,COc1ccc(C(O)Cc2nc3ccccc3n2C)cc1 (configuration not stated),2.8
7,COc1ccc(OCC(=O)NCCc2ccc(OC)c(OC)c2)cc1,4.5
8,O=C(/C=C/c1ccc(-c2ccc(Cl)cc2Cl)o1)c1ccccc1,18.3
9,Cc1ccc(C2=NN(C(=O)CCC(=O)O)C(c3cccc([N+](=O)[O-])c3)C2)cc1 (configuration not stated),11.2
10,COc1cc(NC(=O)C2CC2)c(OC)cc1Cl,3.8
11,O=C(Nc1cccc(Br)c1)c1ccc([N+](=O)[O-])cc1Cl,0.8
12,O=C(Nc1ccc(Cl)c(Cl)c1)Nc1nnc(COc2ccc([N+](=O)[O-])cc2)s1,8.3
13,COc1cc(NS(=O)(=O)c2ccc(F)cc2)c(OC)cc1NC(C)=O,5.2
14,CCOc1ccc(NS(=O)(=O)c2ccc3nsnc3c2)cc1,-3.3
15,COc1ccc(CN2CCCN(Cc3ccc(OC)cc3)C2c2ccc(F)cc2)cc1,2.8
16,CNc1cc([N+](=O)[O-])ccc1N/C=C\C(=O)c1ccc2ccccc2c1,14.1
17,Clc1cccc(Cl)c1OCCCN1CCOCC1,5.8
18,O=C1NC(=O)N(c2ccccc2F)C(=O)/C1=C/c1ccc(OCc2cccc(C(=O)O)c2)cc1,10.7
19,COC(=O)C1=C(C)NC2=C(C(=O)c3ccccc32)C1c1ccc(-c2ccc([N+](=O)[O-])cc2OC)o1 (configuration not stated),9.1
20,CN1CCC(O)N1C(=O)c1ccccc1O (configuration not stated),12.7
